# From the supplement of paper PMC9446081
# About 220 (0.56%) of roughly 39,000 compounds showed activity. The list shows a part of the results.
# Test system: Escherichia coli K-12 BW25113
# Assay: relative growth (OD600 normalised to plate interquartile mean) (fraction); higher = less growth inhibition, active = 0.2 or less
# Conditions: 50 µM; LB; incubation time: overnight (16-24 h)
# 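Further: static incubation at 37 °C against the wild-type strain, values averaged over two biological replicates.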
row,SMILES,relative growth
1,C[C@H](CO)N1C[C@H](C)[C@H](CN(C)Cc2ccc(Cl)c(Cl)c2)Oc2ccc(NC(=O)Nc3ccc4c(c3)OCO4)cc2CC1=O,inactive: 1.02
2,C[C@@H]1CCCCO[C@@H](CN(C)C(=O)NC2CCCCC2)[C@H](C)CN([C@@H](C)CO)C(=O)c2cc(NC(=O)Nc3ccc4c(c3)OCO4)ccc2O1,inactive: 1.01
3,CCOC(=O)C1=C(C)NC(C)=C(C(=O)OC)C1c1cccc(Cl)c1Cl (stereo not given),inactive: 1.07
4,C[C@@H]1CN([C@H](C)CO)C(=O)c2cccc(NC(=O)C3CCOCC3)c2O[C@@H]1CN(C)S(=O)(=O)c1ccc(F)cc1,inactive: 0.923
5,CC(C)NC(=O)N(C)C[C@@H]1Oc2ccc(NC(=O)CCN3CCOCC3)cc2C(=O)N([C@@H](C)CO)C[C@@H]1C,inactive: 1
6,COc1ccc(S(=O)(=O)N(C)C[C@@H]2Oc3ccc(NS(=O)(=O)c4ccccc4)cc3C(=O)N([C@H](C)CO)C[C@H]2C)cc1,inactive: 1.03
7,C[C@@H]1CN([C@@H](C)CO)C(=O)c2cc(NS(=O)(=O)c3ccc(Cl)cc3)ccc2O[C@@H]1CN(C)S(=O)(=O)c1cn(C)cn1,inactive: 1.02
8,C[C@H](CO)N1C[C@H](C)[C@@H](CN(C)S(=O)(=O)c2cn(C)cn2)Oc2ccc(NC(=O)C3CC3)cc2CC1=O,inactive: 1
9,CCNC(=O)c1coc(C)n1,inactive: 1
10,COc1cccc(S(=O)(=O)Nc2ccc3c(c2)[C@H]2C[C@@H](CC(=O)NCc4ccccc4F)O[C@@H](CO)[C@H]2O3)c1,inactive: 1.01
11,C[C@H](CO)N1C[C@H](C)[C@@H](CN(C)C(=O)C2CCCCC2)OCCCC[C@H](C)Oc2ccc(NC(=O)Nc3ccc4c(c3)OCO4)cc2C1=O,inactive: 1.02
12,C[C@@H]1CN([C@@H](C)CO)C(=O)c2cc(C3=CCCC3)cnc2O[C@H]1CN(C)C(=O)Nc1ccc(C(F)(F)F)cc1,inactive: 0.978
13,C[C@@H]1CCCCO[C@H](CN(C)Cc2ccc(Cl)c(Cl)c2)[C@@H](C)CN([C@H](C)CO)C(=O)c2cc(NS(C)(=O)=O)ccc2O1,inactive: 0.979
14,C[C@@H]1CN([C@@H](C)CO)C(=O)c2cccc(NC(=O)c3cnccn3)c2O[C@@H]1CN(C)C(=O)Nc1ccc2c(c1)OCO2,inactive: 1.01
15,C[C@@H]1CN([C@H](C)CO)C(=O)c2cc(NS(=O)(=O)c3cn(C)cn3)ccc2O[C@@H]1CN(C)S(C)(=O)=O,inactive: 0.987
16,Cc1noc(C)c1NC(=O)N(C)C[C@H]1Oc2c(NC(=O)NC(C)C)cccc2C(=O)N([C@@H](C)CO)C[C@@H]1C,inactive: 1.01
17,C[C@@H]1CN([C@H](C)CO)C(=O)c2cc(NC(=O)c3ccccc3)ccc2O[C@@H](C)CCCCO[C@H]1CN(C)C(=O)Nc1ccc2c(c1)OCO2,inactive: 0.99
18,CC(C)NC(=O)Nc1ccc2c(c1)C(=O)N([C@H](C)CO)C[C@H](C)[C@H](CN(C)CC1CCCCC1)OCCCC[C@@H](C)O2,inactive: 0.955
19,C[C@H]1CN([C@@H](C)CO)C(=O)c2cc(NC(=O)Cc3ccccc3)ccc2O[C@H]1CN(C)Cc1ccc(C(F)(F)F)cc1,inactive: 1.02
20,C[C@@H]1CCCCO[C@H](CN(C)Cc2ccccc2)[C@@H](C)CN([C@@H](C)CO)C(=O)c2cc(NC(=O)C3CCCCC3)ccc2O1,inactive: 1.02

row,SMILES,relative growth
1,C[C@@H]1CN([C@H](C)CO)C(=O)Cc2cc(NS(=O)(=O)c3ccc(F)cc3)ccc2O[C@@H]1CN(C)S(=O)(=O)c1ccc(F)cc1,inactive: 1
2,C[C@H](CO)N1C[C@H](C)[C@@H](CN(C)Cc2cccc(C(F)(F)F)c2)OCc2ccccc2-c2ccccc2C1=O,inactive: 1.1
3,COc1ccccc1-c1ccc2c(c1)O[C@@H](CN(C)C(=O)c1cccnc1)[C@H](C)CN([C@H](C)CO)S2(=O)=O,inactive: 0.988
4,C[C@@H]1CN([C@@H](C)CO)C(=O)c2cc(C#CCc3ccccc3)cnc2O[C@H]1CN(C)C(=O)C1CCOCC1,inactive: 1.02
5,O=C(O)[C@H]1CCCN1C(=O)c1cccnc1,inactive: 1.04
6,COC(=O)/C=C/C(=O)OC,inactive: 1
7,C[C@H]1CN([C@@H](C)CO)C(=O)CCCn2cc(nn2)CO[C@H]1CN(C)C(=O)Nc1ccc(C(F)(F)F)cc1,inactive: 0.955
8,O=C(Nc1cccc2cccnc12)[C@H]1[C@@H](c2ccc(Br)cc2)CC(=O)N1C(=O)OCc1ccccc1,inactive: 0.945
9,Cc1noc(C)c1S(=O)(=O)N(C)C[C@@H]1OCCCC[C@H](C)Oc2ccc(NS(C)(=O)=O)cc2C(=O)N([C@H](C)CO)C[C@@H]1C,inactive: 1.01
10,Cc1ccc(S(=O)(=O)N(C)C[C@@H]2Oc3cc(Br)ccc3S(=O)(=O)N([C@@H](C)CO)C[C@H]2C)cc1,inactive: 1.03
11,C[C@@H]1CN([C@H](C)CO)C(=O)c2cc(NC(=O)Nc3ccc(F)cc3)ccc2O[C@@H]1CN(C)S(=O)(=O)c1cn(C)cn1,inactive: 1.01
12,C=CCOc1ccc(C(=O)C2=C(O)C(=O)N(CCCN3CCOCC3)[C@@]23C(=O)N(C)c2ccccc23)cc1C,inactive: 1.02
13,Nc1ncn(C2OC(CO)C(O)C2O)c(=O)n1 (stereo not given),active: 0.05
14,Cc1ccc(S(=O)(=O)N[C@@H](Cc2ccccc2)C(=O)NCCCn2cc(C(=O)NO)nn2)cc1,inactive: 0.999
15,COc1ccc(CN2C[C@@H](C)[C@@H](OC)CN(C)C(=O)c3ccc(NC(=O)c4nc5ccccc5s4)cc3OC[C@H]2C)cc1,inactive: 1.02
16,CN(C)CCCNC(=O)C[C@H]1C=C[C@H](NS(=O)(=O)c2ccccc2)[C@H](CO)O1,inactive: 0.992
17,COc1ccc(S(=O)(=O)Nc2cccc3c2O[C@@H](CN(C)S(=O)(=O)c2cccs2)[C@H](C)CN([C@@H](C)CO)C3=O)cc1,inactive: 0.972
18,CC(C)NC(=O)N(C)C[C@H]1Oc2ccc(NC(=O)NC3CCCCC3)cc2C(=O)N([C@H](C)CO)C[C@@H]1C,inactive: 0.981
19,CC(C)NC(=O)Nc1ccc2c(c1)C(=O)N([C@@H](C)CO)C[C@H](C)[C@@H](CN(C)C(=O)NC1CCCCC1)O2,inactive: 1.02
20,C[C@@H]1CN([C@H](C)CO)C(=O)Cc2cc(NC(=O)Cc3ccccc3)ccc2O[C@H]1CN(C)C(=O)Nc1cccc2ccccc12,inactive: 1.01

row,SMILES,relative growth
1,NNC(=O)CS(=O)(=O)c1ccc(C(F)(F)F)cn1,inactive: 1.03
2,CCCCCOc1ccc(-c2ccc(-c3ccc(C(=O)N[C@H]4C[C@@H](O)[C@@H](O)NC(=O)[C@@H]5[C@@H](O)[C@@H](C)CN5C(=O)[C@H]([C@@H](C)O)NC(=O)[C@H]([C@H](O)[C@@H](O)c5ccc(O)cc5)NC(=O)[C@@H]5C[C@@H](O)CN5C(=O)[C@H]([C@@H](C)O)NC4=O)cc3)cc2)cc1,inactive: 1.12
3,C[C@@H]1CN([C@H](C)CO)C(=O)c2cc(NC(=O)Nc3cccc4ccccc34)ccc2O[C@H]1CN(C)C(=O)NC1CCCCC1,inactive: 1.01
4,C[C@H](CO)N1C[C@H](C)[C@@H](CN(C)C(=O)Nc2ccc(C(C)(C)C)cc2)OCc2cn(nn2)CCCC1=O,inactive: 0.981
5,O=C(CN1CCOC1=O)N1CCC2(CCC(=O)N(CCCn3ccnc3)C2)CC1,inactive: 0.998
6,COc1ccc(NC(=O)N(C)C[C@H]2OCCCC[C@H](C)Oc3ccc(NS(=O)(=O)c4cccs4)cc3C(=O)N([C@@H](C)CO)C[C@@H]2C)cc1,inactive: 1.04
7,COc1ccc([Si](C)(C)[C@H]2[C@H](CCn3cc([C@H](O)c4ccccc4)nn3)O[C@@]3(C(=O)N(Cc4cccc(N5CCOC5=O)c4)c4ccccc43)[C@@H]2C)cc1,inactive: 1.02
8,CC(C)NC(=O)Nc1ccc2c(c1)C(=O)N([C@H](C)CO)C[C@@H](C)[C@H](CN(C)S(=O)(=O)c1ccc(Cl)cc1)O2,inactive: 1.03
9,C[C@@H]1CN([C@@H](C)CO)C(=O)Cc2cc(NS(=O)(=O)c3cccs3)ccc2O[C@@H]1CN(C)Cc1ccc(-c2ccccc2)cc1,inactive: 1.07
10,C[C@@H]1CN([C@@H](C)CO)C(=O)Cc2cc(NC(=O)CCCCCC(=O)Nc3ccccc3N)ccc2O[C@@H]1CN(C)C(=O)Nc1cccc2ccccc12,inactive: 0.94
11,C[C@@H]1CN([C@@H](C)CO)C(=O)c2cc(NC(=O)Nc3ccc(C(F)(F)F)cc3)ccc2O[C@@H]1CN(C)Cc1ccc(-c2ccccc2)cc1,inactive: 1.03
12,COc1cc(O)cc(OC)c1OC,inactive: 1.1
13,C[C@@H]1CCCCO[C@@H](CN(C)S(C)(=O)=O)[C@H](C)CN([C@@H](C)CO)C(=O)c2cc(NS(=O)(=O)c3cccs3)ccc2O1,inactive: 1.01
14,C[C@@H]1CN([C@@H](C)CO)C(=O)c2cc(NS(C)(=O)=O)ccc2O[C@@H]1CN(C)Cc1ccc(C(=O)Nc2ccccc2N)cc1,inactive: 1
15,O=C(NC(Cc1cc(=O)[nH]c2ccccc12)C(=O)O)c1ccc(Cl)cc1 (stereo not given),inactive: 0.965
16,Cn1cc(C[C@@H](N)C(=O)O)c2ccccc21,inactive: 0.998
17,CC(C)CC#Cc1cnc2c(c1)C(=O)N([C@@H](C)CO)C[C@H](C)[C@@H](CN(C)S(=O)(=O)c1cccs1)O2,inactive: 1.01
18,Cc1nc2cc(C)c(C)cc2s1,inactive: 0.994
19,CCN(CC)CCCCNc1ncc2cc(-c3c(Cl)cccc3Cl)c(NC(=O)NC(C)(C)C)nc2n1,inactive: 0.984
20,C[C@H](CO)N1C[C@H](C)[C@@H](CN(C)S(=O)(=O)c2cccc(C#N)c2)OCc2cnnn2CCCC1=O,inactive: 0.984
